# The supplement of paper PMC10126150
# Sequences with one replicate were seen in a single cluster, so their values are uncertain.
# System: ATP
# Assay: switch fluorescence ratio, 500 uM ATP over buffer (Cy3 cluster intensity, sum of 5 cycles each) (fold (ratio)); higher = stronger signal-on switching upon ATP binding; sequences stand for … in TCGTCGGCAGCGTCAGATGTGTATAAGAGACAGTTTTTTTTTTTTTTTTTTTTTTTTT…TC
# Settings: aptamer strand: ATP DNA aptamer (quencher-CACCTGGGGGAGTATTGCGGAGGAAGG + anchor), 100 nM annealed; ATP concentration: 500 uM; one replicate
# Procedure, shortened: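 Five buffer/ATP imaging cycles were run on Cy3-labelled switching-strand clusters on a modified Illumina MiSeq flow-cell, with NaOH stripping and re-annealing between cycles. In each cycle, clusters annealed to 100 nM quencher-labelled ATP aptamer were imaged in selection buffer, then after 15 min with 500 uM ATP at 22 °C. Per cluster, the fluorescence ratio is summed target-cycle over summed buffer-cycle Cy3 intensity, averaged per switch-domain sequence. Only clusters within 100-1000 RFU were kept.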
# 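Further: ATP exposure 15 min at 22 °C before imaging.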
row,Sequence,switch fluorescence ratio
1,GTGACGGATA,1.01
2,GTGAGAAGTA,0.966
3,GTGAGATGCC,1.03
4,GTGAGATTGA,1.02
5,GTGAGCAATT,1.38
6,GTGAGCAGGA,0.999
7,GTGAGCCGAT,0.971
8,GTGAGGGCAC,1.01
9,GTGAGTACTG,1.05
10,GTGATAATCG,1.04
11,GTGATAGAGT,0.964
12,GTGATATCTA,0.947
13,GTGATATGCG,0.985
14,GTGATATGTG,1.02
15,GTGATCACTG,0.965
16,GTGATTAATA,1.08
17,GTGATTAGAC,0.936
18,GTGATTTCGA,0.967
19,GTGCAAGCCT,1.08
20,GTGCAGGCGT,0.992
21,GTGCATCGGT,0.995
22,GTGCATTTCG,0.939
23,GTGCCAGAAA,1.02
24,GTGCCATCGT,1.05
25,GTGCCCACAG,0.978

row,Sequence,switch fluorescence ratio
1,GTGCCCACGG,1.05
2,GTGCCCCCAT,1.08
3,GTGCCGAGGG,1.01
4,GTGCCGATTT,1.02
5,GTGCCGGGGA,0.998
6,GTGCGAAGG,0.983
7,GTGCGAATGT,0.979
8,GTGCGGGACA,0.998
9,GTGCGGGTGT,1.07
10,GTGCGGGTTC,1.04
11,GTGCGTAAGT,1.03
12,GTGCGTTAAC,1.03
13,GTGCGTTAGC,1.03
14,GTGCTACCGT,0.986
15,GTGCTAGCAC,1.05
16,GTGCTAGTGG,0.986
17,GTGCTCGTGG,1.02
18,GTGCTGAAGG,0.963
19,GTGCTTACTC,1.3
20,GTGCTTGGGA,0.964
21,GTGGAACGGT,0.982
22,GTGGACCGTT,1.03
23,GTGGACGCAC,1.21
24,GTGGAGAGCC,1
25,GTGGATAACG,1

row,Sequence,switch fluorescence ratio
1,GTGGATACAT,0.953
2,GTGGATAGCA,0.973
3,GTGGATTTCG,1.02
4,GTGGCACGGA,0.98
5,GTGGCACGT,1
6,GTGGCCGGGC,1
7,GTGGCCGTGT,1.09
8,GTGGCTATGC,1.02
9,GTGGCTTATC,0.988
10,GTGGGAAAAG,0.964
11,GTGGGCGACA,1.01
12,GTGGGCTGGA,1
13,GTGGGGGGAC,0.988
14,GTGGGGGTCC,1.02
15,GTGGGGTTT,1.01
16,GTGGGTAG,0.968
17,GTGGTAAAAA,0.975
18,GTGGTAAGGA,0.944
19,GTGGTACAGT,1
20,GTGGTCCG,1.02
21,GTGGTCCTCA,0.997
22,GTGGTCTATG,0.998
23,GTGGTGCGTT,0.964
24,GTGGTTGGAC,1.02
25,GTGGTTTATT,0.983

row,Sequence,switch fluorescence ratio
1,GTGGTTTCCT,1.02
2,GTGTAAACTC,0.931
3,GTGTAAATGT,0.98
4,GTGTAAGTGC,1
5,GTGTACCCAG,1.02
6,GTGTAGGGAG,1.02
7,GTGTAGTGTT,0.992
8,GTGTATATT,0.978
9,GTGTCCGTGT,1.01
10,GTGTCCTCAT,1
11,GTGTCTAGGC,1.01
12,GTGTCTAGTG,1.03
13,GTGTGAGCCG,1.01
14,GTGTGATGCA,0.948
15,GTGTGCGCCT,1.02
16,GTGTGCTGCC,0.997
17,GTGTGGATGT,0.985
18,GTGTTAAAGT,1.02
19,GTGTTATACT,1.03
20,GTGTTGATTC,1.02
21,GTTAAAAAAC,1.12
22,GTTAAATTAA,2.29
23,GTTAATATTT,1.01
24,GTTAATGTTA,0.969
25,GTTACACCCC,1.43

row,Sequence,switch fluorescence ratio
1,GTTACGGGTT,1.01
2,GTTACGGTTC,1.01
3,GTTACTCAAG,1.03
4,GTTACTCCTC,1.06
5,GTTAGACGCT,1.04
6,GTTAGAGACT,1
7,GTTAGAGCAG,1.01
8,GTTAGATCTG,1
9,GTTAGCAACG,1.03
10,GTTAGCACGG,1
11,GTTAGGACGT,1.01
12,GTTAGGCCTT,1.05
13,GTTAGGGAAC,0.999
14,GTTAGGGTAA,1.06
15,GTTAGGGTC,1.04
16,GTTAGGTACT,1.04
17,GTTAGTAAAG,0.965
18,GTTAGTATAC,0.998
19,GTTATAACGA,1.03
20,GTTATATC,0.955
21,GTTATCCCAG,0.989
22,GTTATCGATA,0.999
23,GTTATCTCAG,0.97
24,GTTATGAAGG,1.02
25,GTTATTAATG,1.01

row,Sequence,switch fluorescence ratio
1,GTTATTCGAG,0.995
2,GTTATTGACT,0.994
3,GTTATTTCTA,0.978
4,GTTCAAAAAA,1
5,GTTCAACCGT,1.03
6,GTTCAACTCG,0.982
7,GTTCACTAAC,1.06
8,GTTCAGGCGC,1.03
9,GTTCCAGCGC,1.1
10,GTTCCGAAGG,1.03
11,GTTCCGCGGG,1.14
12,GTTCCGTCGG,1.02
13,GTTCCGTTGA,1.05
14,GTTCCTACCG,1.38
15,GTTCCTGAGT,1.03
16,GTTCCTTGTT,1
17,GTTCGATTTC,0.965
18,GTTCGCGTGG,0.938
19,GTTCGCTGTG,0.956
20,GTTCGGCATG,1.03
21,GTTCGGGATA,1.02
22,GTTCGGGCGA,0.993
23,GTTCGGGCTG,1.07
24,GTTCGGTGTC,0.991
25,GTTCGTCCGT,1.05

row,Sequence,switch fluorescence ratio
1,GTTCGTTGTA,1.01
2,GTTCTAGAAG,1.02
3,GTTCTATCGA,1.02
4,GTTCTGCCGG,1.02
5,GTTCTTCCAA,1.01
6,GTTCTTCGTT,0.961
7,GTTCTTCTCA,0.976
8,GTTCTTGACT,0.945
9,GTTGAACTTA,1
10,GTTGAAGCGT,0.948
11,GTTGAAGGTT,0.961
12,GTTGACGGT,0.994
13,GTTGATGAGC,0.972
14,GTTGATTCCA,1.01
15,GTTGCACGTG,0.974
16,GTTGCAGGT,0.972
17,GTTGCCAGGG,1.04
18,GTTGCCCTAT,0.984
19,GTTGCGGTT,0.953
20,GTTGCTAAAG,0.961
21,GTTGCTAACG,1.02
22,GTTGGCACTC,1.01
23,GTTGGCATCG,0.992
24,GTTGGCCCAC,1.12
25,GTTGGCCCGC,1.04

row,Sequence,switch fluorescence ratio
1,GTTGGCCGTT,0.971
2,GTTGGGAACA,0.966
3,GTTGGGACTC,1.01
4,GTTGGGATTT,0.952
5,GTTGGGTCTA,1.01
6,GTTGGTGTGA,0.992
7,GTTGGTTCCC,0.985
8,GTTGGTTCTA,1
9,GTTGGTTGCA,0.95
10,GTTGTAATGT,1
11,GTTGTAATTG,0.94
12,GTTGTACGCG,1.02
13,GTTGTAGCAG,0.983
14,GTTGTCGCG,0.986
15,GTTGTCGCGT,0.987
16,GTTGTCGTCT,1.08
17,GTTGTTCTGG,0.965
18,GTTGTTGCCG,1.02
19,GTTGTTTTGC,0.996
20,GTTTAA,0.941
21,GTTTAACATT,1.04
22,GTTTAAGCAA,1.09
23,GTTTAATCCT,1.08
24,GTTTAGAAAT,0.975
25,GTTTAGAACA,0.966
